The text below walks through data of patent US20190112375A1 (Bristol-Myers Squibb, published 2019).

In the test the target is T1, human TIGIT (soluble, SPR; construct not stated) (human, UniProt Q495A1 22-141, limits assumed).
T1 construct: whole entry named; also called huTIGIT
T1 sequence: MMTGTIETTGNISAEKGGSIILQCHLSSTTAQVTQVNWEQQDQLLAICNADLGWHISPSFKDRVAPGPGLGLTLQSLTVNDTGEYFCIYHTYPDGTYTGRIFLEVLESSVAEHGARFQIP
The test can be described thus: SPR. (In general: In SPR one partner is held on a chip, and binding of the other changes the refractive index at the surface.)

B1: 15A6 IgG1f (antibody)
heavy: QLQLQESGPGLVKPSETLSLTCTVSGGSISSSRYFWGWIRQPPGKGLEWIGYIYYRGSTYYNPSLKSRVTIAVDTSKNQFSLKLSSVTAADTAVYYCASSSAWYFDYWGQGNLVTVSSASTKGPSVFPLAPSSKSTSGGTAALGCLVKDYFPEPVTVSWNSGALTSGVHTFPAVLQSSGLYSLSSVVTVPSSSLGTQTYICNVNHKPSNTKVDKRV[skipping human IgG1 Fc]
VL: [skipping about 100 residues]
notes: kappa light chain
Regarding B1, binding was put at a Kd of 1.5 nM, the dissociation rate constant (koff) turned out to be 0.0015 s⁻¹ and the kon is 1e+06 M⁻¹ s⁻¹.

One may read the Kd as the free concentration of one partner at which half of the binding sites on the other are occupied at equilibrium, for simple one-to-one binding. Read a low Kd as a tighter complex. The koff is a measure of how fast the partners let go of each other. Higher therefore signals fast dissociation. In general, kon refers to a measure of how fast the partners come together.
